Laboratory results: PMC6919601, “Identification of Plasmodium dipeptidyl aminopeptidase allosteric inhibitors by high throughput screening” (PLoS ONE, 2019)
Screen size: about 110,000 compounds; about 230 (0.21%) showed an effect of 50% or more. Some of the results follow.

target: DPAP1 (Plasmodium falciparum, UniProt Q8IIJ9); test: primary screen, percent inhibition; read by cleavage of a fluorogenic dipeptide substrate; higher = more effect of the substance; set-up: species or system P. falciparum D10 trophozoite lysates; single well
Sequence (Q8IIJ9 whole entry, looked up): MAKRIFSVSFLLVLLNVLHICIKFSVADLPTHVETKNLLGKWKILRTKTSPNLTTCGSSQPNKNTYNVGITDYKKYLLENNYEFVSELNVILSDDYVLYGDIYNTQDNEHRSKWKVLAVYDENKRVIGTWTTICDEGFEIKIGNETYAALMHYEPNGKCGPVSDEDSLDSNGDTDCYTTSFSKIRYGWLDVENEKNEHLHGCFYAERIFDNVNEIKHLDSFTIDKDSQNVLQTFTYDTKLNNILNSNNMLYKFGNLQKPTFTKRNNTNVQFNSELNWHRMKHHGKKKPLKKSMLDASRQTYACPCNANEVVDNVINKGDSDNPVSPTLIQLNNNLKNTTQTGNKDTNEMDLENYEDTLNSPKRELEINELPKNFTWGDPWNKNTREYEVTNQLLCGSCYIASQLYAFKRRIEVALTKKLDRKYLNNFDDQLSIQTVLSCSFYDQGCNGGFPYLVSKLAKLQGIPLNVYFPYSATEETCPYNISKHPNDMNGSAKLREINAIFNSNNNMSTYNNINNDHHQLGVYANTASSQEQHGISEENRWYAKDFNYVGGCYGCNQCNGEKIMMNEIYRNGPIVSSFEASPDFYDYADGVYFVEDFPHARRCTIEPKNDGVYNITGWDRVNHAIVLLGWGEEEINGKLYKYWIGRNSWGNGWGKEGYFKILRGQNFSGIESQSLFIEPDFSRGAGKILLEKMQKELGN
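Further: 30 min substrate incubation versus DMSO and 10 µM JCP410 controls.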

Row | SMILES | % Inhibition @ 10 uM
1 | COc1ccccc1-n1c(S)nnc1-c1cn(C)nc1C | 2.32%
2 | Cc1ccc(S(=O)(=O)NC(C)C(=O)Nc2cc(C(F)(F)F)ccc2Cl)cc1 (stereo not drawn) | -5.46%
3 | COc1nonc1NC(=O)CCCCCN1C(=O)c2ccccc2C1=O | -2.54%
4 | O=C(Cn1c(=O)sc2ccccc21)Nc1cccc(F)c1 | -10%
5 | CCCCOc1nc(N)nc(CC)n1 | 3.98%
6 | Cc1ccccc1C1CC(=O)NC2=C1C(=O)CC(C)(C)C2 (stereo not drawn) | -4.53%
7 | O=C(NCc1ccccn1)c1ccc2nc(-c3ccco3)c(-c3ccco3)nc2c1 | 2.28%
8 | Cc1cc(C)nc(-n2nc(C)c3c(=O)oc(C)cc32)n1 | -5.2%
9 | CCc1ccc(NC(=O)c2ccc3c(c2)CCN3S(C)(=O)=O)cc1 | -1.28%
10 | O=C(O)CC(NC(=O)c1ccco1)c1ccccc1 (stereo not drawn) | -4.57%
11 | CCCC1=C(C(=O)OCC)C(c2ccc(Br)s2)C(C#N)=C(N)O1 (stereo not drawn) | -6.82%
12 | CC(C)C(NC(=O)CN(c1ccccc1)S(=O)(=O)c1ccccc1)C(C)C | 0.812%
13 | Cn1cc(Cl)c(-c2nnc(S)n2C2CCCCC2)n1 | -4.77%
14 | CCCCO/C(O)=C1\C(C)=NC2=C(C(=O)CC(C)(C)C2)C1c1ccc(Cl)c(Cl)c1 (stereo not drawn) | -6.06%
15 | COc1c2nc(C)cc(O)c2cc2c(C)c(C)n(C)c12 | -2.63%
16 | O=C(Nc1ccccc1Cl)c1cc2ccccc2oc1=O | 0.317%
17 | COc1ccc(C(=O)n2nc(-c3cccnc3)nc2NCc2cccs2)cc1OC | -3.14%
18 | O=C(c1ccccc1)c1cncc(Br)c1 | 1.54%
19 | Fc1ccc(N2CCN(CCCc3ccccc3)CC2)cc1 | -7.17%
20 | CCC(C)N1C(=O)S/C(=C/c2ccc(OC)cc2OC)C1=O (stereo not drawn) | 2.27%
21 | COc1cc(/C=C2\N=C(c3ccccc3F)OC2=O)cc(OC)c1OC | -0.441%

Row | SMILES | % Inhibition @ 10 uM
22 | CCO/C(O)=C1/C(C)=Nc2nc(SCc3cccnc3)nn2C1c1ccc(Br)cc1 (stereo not drawn) | 1.02%
23 | C(#CCN1CCOCC1)CC(c1ccccc1)c1ccccc1 | -8.21%
24 | COc1cccc(CN2CCN(C(=O)c3c(OC)cccc3OC)CC2)c1 | 7.27%
25 | COc1ccccc1-c1ccc(C(=O)N[C@@H](CC(C)C)C(=O)NCC#N)s1 | -4.72%
26 | Cc1cc(C)c(S(=O)(=O)N(C)CC(=O)NCc2ccc(Cl)cc2)c(C)c1 | -1.35%
27 | Cc1ccc(C(=O)N/C(=C\c2ccc(F)cc2)C(=O)Nc2ccccc2)cc1 | 2.24%
28 | CCOC(=O)c1c(S(=O)(=O)N2CCC3(CC2)OCCO3)c(C)n(C)c1C | 6.29%
29 | CSc1nc2n(n1)C(c1cccs1)C1=C(O)CCCC1=N2 (stereo not drawn) | -1.62%
30 | O=C1c2cccc3cccc(c23)N1c1ccc(-c2ccccc2)cc1 | 1.13%
31 | COc1ccc(-n2nnnc2C2CCN(S(=O)(=O)c3ccc(OC(F)(F)F)cc3)CC2)cc1 | 1.67%
32 | CN(CCCNc1ncnc2onc(-c3ccc(Cl)cc3)c12)Cc1ccccc1 | -0.495%
33 | O=C(O)C(Cc1ccccc1)P(=O)(O)CN1CCOCC1 (stereo not drawn) | -5.36%
34 | CC1(C)CC2=Nc3ccccc3NC(c3ccco3)C2=C(O)C1 (stereo not drawn) | 3.83%
35 | CC(C)CC(=O)Nc1ccc2c(c1)C(=O)N(C1CCCCC1)C2=O | -5.13%
36 | COc1cc(C(=O)Nc2nnc(-c3ccccc3Cl)s2)cc(OC)c1OC | 21.9%
37 | CCC(C)(C)CC(NC(=O)OCc1ccccc1)C(=O)NCC#N (stereo not drawn) | -3.04%
38 | CCOc1ccccc1C1C(C#N)=C(N)Oc2c1ccc1ccccc21 (stereo not drawn) | -0.771%
39 | Cc1ccc(NC(=O)CCc2ccccc2)cc1O | -0.884%
40 | COc1cccc(OCCn2cccc2/C=C2\C(=N)N3N=C(N4CCCCC4)SC3=NC2=O)c1 | 1.72%
41 | O=C(Cc1ccccc1)Nc1ccc2oc(-c3cccc(F)c3)nc2c1 | 9.75%
42 | CC(NC(=O)C1CCCN(c2nnc(-n3cccc3)s2)C1)c1ccc2c(c1)OCCO2 (stereo not drawn) | -0.522%

Row | SMILES | % Inhibition @ 10 uM
43 | Clc1nc(-c2ccccc2)cc(-c2ccccc2)n1 | -3.82%
44 | Cc1ccc(S(=O)(=O)c2nnn(-c3ccc(C(C)C)cc3)c2N)cc1 | 1.02%
45 | O=C(NCCN1CCOCC1)c1cc(-c2ccccc2F)no1 | -4.8%
46 | O=C(c1cc2cc(Br)ccc2oc1=O)N1CCOCC1 | -6.78%
47 | COc1cccc(S(=O)(=O)NCCc2ccc(OC)c(OC)c2)c1 | 3.9%
48 | COC(=O)C1=CN(Cc2ccc(OC)cc2)C=C(C(=O)OC)C1c1cc(Cl)c(O)c(OC)c1 | 0.219%
49 | CC1CCCCC1NC(=O)CCNS(=O)(=O)c1ccc2nc(O)ccc2c1 (stereo not drawn) | -5.85%
50 | COc1ccc(C(=O)Nc2ccc(OC)c(OC)c2)c(OC)c1 | 0.634%
51 | O=C(O)c1nnn(Cc2ccccc2Cl)c1C(=O)O | -1.71%
52 | CCOC(=O)N1CCN(S(=O)(=O)c2c(C)nc3scc(C)n3c2=O)CC1 | 0.402%
53 | CC1=C(C(=O)Nc2ccc(C)cn2)C(c2ccc(Cl)cc2)C2=C(O)CCCC2=N1 (stereo not drawn) | -4.49%
54 | O=C(O)c1cc(S(=O)(=O)N2CCCCCC2)c(Cl)cc1Cl | -1.15%
55 | CN(CCCNC(=O)c1ccc(CS(=O)(=O)Cc2cccc(Cl)c2)o1)Cc1ccccc1 | -4.53%
56 | O=C(Cn1nnc(-c2ccccc2Cl)n1)N1CCOCC1 | 1.81%
57 | CCCC12CN3CC(CCC)(CN(C1)C3c1cn(CC)c3ccccc13)C2=O (stereo not drawn) | -3.08%
58 | Cc1cc(Cl)ccc1OCC(=O)Nc1ccc(S(=O)(=O)NC(C)(C)C)cc1 | 2.74%
59 | Cc1ccc(Cl)c(OCc2nnc3n2N=C(c2ccccc2)CS3)c1 | 1.91%
60 | Cc1ccc(C(=O)C2=C(O)C(=O)N(CCc3ccccc3)C2c2ccncc2)o1 (stereo not drawn) | -17.4%
61 | COc1ccc(CN2CCN(Cc3ccccc3)CC2)c(OC)c1 | -4.6%
62 | COc1ccc(OC)c(C2C(C#N)=C(N)Oc3[nH]nc(-c4cc(OC)c(OC)c(OC)c4)c32)c1 (stereo not drawn) | -0.864%
63 | Cc1cc(C)c2c(n1)sc1nc(O)c3cccn3c12 | -4.49%
